# Laboratory results as given in the supplement of paper PMC9135407.
# “And” between values parts separate entries of the source, which are not always exact repeats. Equal entries are not always repeated. Structures can show the parent of a compound that is named as a salt. The whole screen tested about 5,800 compounds, of which about 620 (11%) showed activity.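 The calls were made as follows: active = score above a cut-off or among the top three wells of a plate; in these data no inactive exceeds 0.85.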 The list shows a part of the results, in another mix than the full data.
# Test system: primary human hepatic stellate cells (donor 1)
# Experiment: scaled lipid accumulation score (0 = DMSO-like, 1 = nortriptyline-like); higher = stronger HSC inactivation (lipid re-accumulation), active = hit call of the paper
# Details: 48 h
# [1] = library stock concentration: 3.33 mM
# [2] = library stock concentration: 10 mM
# [3] = library stock concentration: 1 mM
# [4] = library stock concentration: 2.9 mM
# [5] = library stock concentration: 80 uM
# [6] = library stock concentration: 400 uM
# [7] = library stock concentration: 2 mM
structure (smiles),measurement,setting,value
CN(CC(=O)N(Cc1ccc(C2CCCCC2)cc1)c1ccc(C(=O)O)cc1)S(=O)(=O)c1c(F)c(F)c(F)c(F)c1F,scaled lipid accumulation score,[1],inactive: ≤ -0.009
same,scaled lipid accumulation score,[2],inactive: 0.483
OC(CNCC(O)C1CCc2cc(F)ccc2O1)C1CCc2cc(F)ccc2O1 (centres undefined) [Nebivolol],scaled lipid accumulation score,[1],inactive: 0.769
same,scaled lipid accumulation score,[2],inactive: ≤ 0
CC(=O)NS(=O)(=O)c1ccc(NC(=O)c2ccccc2C(=O)O)cc1,scaled lipid accumulation score,[2],inactive: ≤ 0
CCCCCCCCCCCCCCCCOCC(CO)OC (centres undefined) [1-Hexadecyl-2-O-methyl-glycerol],scaled lipid accumulation score,[3],inactive: 0.003
O=C(CCc1ccc(O)cc1)c1c(O)cc(O)cc1O [Phloretin],scaled lipid accumulation score,[1],inactive: ≤ 0
same,scaled lipid accumulation score,[2],inactive: ≤ 0
CC[C@H](C)[C@H](N)C1=N[C@H](C(=O)N[C@@H](CC(C)C)C(=O)N[C@H](CCC(=O)O)C(=O)N[C@H](C(=O)N[C@H]2CCCCNC(=O)[C@H](CC(N)=O)NC(=O)[C@@H](CC(=O)O)NC(=O)[C@H](Cc3cnc[nH]3)NC(=O)[C@@H](Cc3ccccc3)NC(=O)[C@H]([C@@H](C)CC)NC(=O)[C@@H](CCCN)NC2=O)[C@@H](C)CC)CS1 [Bacitracin],scaled lipid accumulation score,,inactive: ≤ 0
same,scaled lipid accumulation score,library stock concentration: 1.4 mM,inactive: 0.019
same,scaled lipid accumulation score,[1],inactive: ≤ 0
same,scaled lipid accumulation score,[2],inactive: ≤ -0.001 and inactive: ≤ 0
CN1CCC(NC(=O)C2=CC(=C3C(O)=CC(=O)C=C3Oc3ccc([N+](=O)[O-])cc3)ON2)CC1,scaled lipid accumulation score,[2],active: 0.976
"Nc1ccc2c3c(cccc13)C(=O)NC2=O [4-Amino-1,8-naphthalimide]",scaled lipid accumulation score,[2],active: 0.886
CN1CCN(CCCN2c3ccccc3Sc3ccc(C(F)(F)F)cc32)CC1 [Trifluoperazine],scaled lipid accumulation score,library stock concentration: 4.9 mM,inactive: 0.434
CN1CCN(CCCN2c3ccccc3Sc3ccc(C(F)(F)F)cc32)CC1,scaled lipid accumulation score,[2],active: 0.99
CN1CCN(CCCN2c3ccccc3Sc3ccc(C(F)(F)F)cc32)CC1 [Trifluoperazine hydrochloride],scaled lipid accumulation score,[2],inactive: 0.396
CN1CCN(CCCN2c3ccccc3Sc3ccc(C(F)(F)F)cc32)CC1 [Trifluoperazine 2HCl],scaled lipid accumulation score,[1],inactive: ≤ 0
same,scaled lipid accumulation score,[2],inactive: 0.815
CN1CCN(CCCN2c3ccccc3Sc3ccc(C(F)(F)F)cc32)CC1 [Trifluoperazine dihydrochloride],scaled lipid accumulation score,,inactive: 0.393
CN(C)CCN1C(=O)c2ccccc2N(C)c2ccccc21 [Dibenzepine HCl],scaled lipid accumulation score,library stock concentration: 6.8 mM,inactive: ≤ 0
COc1ccc(OC)c(C(O)CNC(=O)CN)c1 (centres undefined) [Pro-Amatine],scaled lipid accumulation score,[2],inactive: ≤ 0
COc1ccc(OC)c(C(O)CNC(=O)CN)c1 (centres undefined) [Midodrine hydrochloride],scaled lipid accumulation score,,inactive: ≤ 0
same,scaled lipid accumulation score,library stock concentration: 6.9 mM,inactive: 0.005
same,scaled lipid accumulation score,[2],inactive: ≤ -0.027
CC(S)C(=O)NCC(=O)O (centres undefined) [Tiopronin],scaled lipid accumulation score,[1],inactive: ≤ 0
same,scaled lipid accumulation score,[2],inactive: ≤ 0
CC(S)C(=O)NCC(=O)O (centres undefined),scaled lipid accumulation score,[2],inactive: ≤ 0
CNC[C@H](O)c1ccc(O)c(O)c1 [Epinephrine Bitartrate],scaled lipid accumulation score,[1],inactive: ≤ 0
same,scaled lipid accumulation score,[2],inactive: ≤ 0
CNC[C@H](O)c1ccc(O)c(O)c1 [Epinephrine HCl],scaled lipid accumulation score,[1],inactive: 0.007
same,scaled lipid accumulation score,[2],inactive: ≤ 0
CNC[C@H](O)c1ccc(O)c(O)c1 [(?)-Epinephrine hydrochloride],scaled lipid accumulation score,[2],inactive: 0.578
CNC[C@H](O)c1ccc(O)c(O)c1 [Adrenaline bitartrate],scaled lipid accumulation score,library stock concentration: 6 mM,inactive: ≤ 0
same,scaled lipid accumulation score,[2],inactive: ≤ 0
CNC[C@H](O)c1ccc(O)c(O)c1 [(-)-Epinephrine bitartrate],scaled lipid accumulation score,[2],inactive: 0.396
N#Cc1cc2c(OCC(O)CN3CCN(C(c4ccccc4)c4ccccc4)CC3)cccc2[nH]1 (centres undefined),scaled lipid accumulation score,library stock concentration: 10.7 mM,inactive: 0.795
CC(C)(C)NCC(O)COc1cccc2c1CCC(=O)N2 (centres undefined) [Carteolol hydrochloride],scaled lipid accumulation score,,inactive: ≤ 0
CC(C)(C)NCC(O)COc1cccc2c1CCC(=O)N2 (centres undefined) [Carteolol HCl],scaled lipid accumulation score,[1],inactive: ≤ 0
same,scaled lipid accumulation score,[2],inactive: ≤ -0.001
C=C1c2c(Cl)ccc(O)c2C(=O)C2=C(O)[C@]3(O)C(=O)C(C(N)=O)=C(O)[C@@H](N(C)C)[C@@H]3[C@@H](O)[C@H]12.O=C(O)c1cc(S(=O)(=O)O)ccc1O [Meclocycline sulfosalicylate],scaled lipid accumulation score,,inactive: 0.032
same,scaled lipid accumulation score,[4],inactive: ≤ 0
same,scaled lipid accumulation score,[2],inactive: ≤ 0
CC(C)C[C@H](NC(=O)[C@H](O)[C@H](N)Cc1ccccc1)C(=O)O [Epibestatin hydrochloride],scaled lipid accumulation score,[2],inactive: ≤ -0.07
CNC(=O)c1cc(Oc2ccc(NC(=O)Nc3ccc(Cl)c(C(F)(F)F)c3)c(F)c2)ccn1 [Regorafenib (BAY 73-4506)],scaled lipid accumulation score,[1],inactive: ≤ 0
same,scaled lipid accumulation score,[2],inactive: ≤ 0
CNC(=O)c1cc(Oc2ccc(NC(=O)Nc3ccc(Cl)c(C(F)(F)F)c3)c(F)c2)ccn1 [Regorafenib],scaled lipid accumulation score,[5],inactive: ≤ -0.016
same,scaled lipid accumulation score,[6],inactive: 0.033
same,scaled lipid accumulation score,[7],inactive: ≤ -0.016
same,scaled lipid accumulation score,[2],inactive: ≤ -0.016
CN(C)CC(=O)Nc1ccc2[nH]c(=O)c3ccccc3c2c1,scaled lipid accumulation score,[1],inactive: ≤ 0 and inactive: ≤ -0.009
same,scaled lipid accumulation score,[2],inactive: 0.59 and inactive: 0.025
C/C=C1\C(=O)C[C@H]2[C@@H]3CCC4=CC(=O)CC[C@]4(C)[C@H]3CC[C@]12C [Guggulsterone],scaled lipid accumulation score,[2],inactive: 0.14
CN1C2CCC1CC(OC(c1ccccc1)c1ccccc1)C2.CS(=O)(=O)O (centres undefined) [Benztropine mesylate],scaled lipid accumulation score,[2],active: 1.05
COc1ccc2c(c1OC)C(=O)O[C@@H]2[C@H]1c2c(cc3c(c2OC)OCO3)CCN1C [Noscapine hydrochloride],scaled lipid accumulation score,library stock concentration: 4.4 mM,inactive: 0.008
same,scaled lipid accumulation score,[2],inactive: 0.011 and inactive: 0.074
COc1ccc2c(c1OC)C(=O)O[C@@H]2[C@H]1c2c(cc3c(c2OC)OCO3)CCN1C [Noscapine hydrchloride],scaled lipid accumulation score,[2],inactive: ≤ -0.055
COc1ccc2c(c1OC)C(=O)O[C@@H]2[C@H]1c2c(cc3c(c2OC)OCO3)CCN1C [Noscapine],scaled lipid accumulation score,,inactive: ≤ 0
CC(=O)NCCCS(=O)(=O)O,scaled lipid accumulation score,[2],inactive: ≤ 0
Cc1ccc(C(=O)Nc2cccc(C(F)(F)F)c2)cc1-c1ccc2nc(NCCN3CCOCC3)ncc2c1,scaled lipid accumulation score,[6],inactive: ≤ -0.005
same,scaled lipid accumulation score,[7],inactive: 0.748
O=C(O)c1cc(/N=N/c2ccc(O)c(C(=O)O)c2)ccc1O,scaled lipid accumulation score,[2],inactive: ≤ 0
O=C(O)c1cc(/N=N/c2ccc(O)c(C(=O)O)c2)ccc1O [Olsalazine Sodium],scaled lipid accumulation score,[1],inactive: ≤ 0
same,scaled lipid accumulation score,[2],inactive: 0.208
CCCCCCCCCCCCCCCC(=O)OC(CC(=O)O)C[N+](C)(C)C (racemic) [Palmitoyl-DL-Carnitine chloride],scaled lipid accumulation score,[2],inactive: 0.446
"CCCCCC(=O)CC[C@H]1C=CC(=O)[C@@H]1C/C=C\CCCC(=O)O [13,14-dihydro-15-keto Prostaglandin A2]",scaled lipid accumulation score,[3],inactive: ≤ 0
CCOC(=O)O[C@]1(C(=O)COC(=O)CC)CC[C@H]2[C@@H]3CCC4=CC(=O)C=C[C@]4(C)[C@H]3[C@@H](O)C[C@@]21C [Prednicarbate],scaled lipid accumulation score,,inactive: ≤ 0
Cc1nc2cc3nc(-c4cccs4)cnc3cc2n1C,scaled lipid accumulation score,[1],inactive: ≤ 0
COc1cc2ncnc(Nc3cccc(Cl)c3)c2cc1OC [Tyrphostin AG 1478],scaled lipid accumulation score,[2],active: 0.882
O=C(O)[C@H](O)c1ccccc1 [R-(-)-Mandelic Acid],scaled lipid accumulation score,[3],inactive: 0.02
C(=C\c1ccccc1)/CN1CCN(C(c2ccccc2)c2ccccc2)CC1 [Cinnarizine],scaled lipid accumulation score,,inactive: ≤ 0
same,scaled lipid accumulation score,[2],inactive: 0.354
C[C@]1(O)C[C@@H](c2nc(-c3ccc4ccc(-c5ccccc5)nc4c3)c3c(N)nccn32)C1 [OSI-906 (Linsitinib)],scaled lipid accumulation score,[1],inactive: ≤ 0
same,scaled lipid accumulation score,[2],inactive: ≤ 0
C[C@]1(O)C[C@@H](c2nc(-c3ccc4ccc(-c5ccccc5)nc4c3)c3c(N)nccn32)C1,scaled lipid accumulation score,[5],inactive: 0.05
same,scaled lipid accumulation score,[6],inactive: ≤ -0.009
same,scaled lipid accumulation score,[7],inactive: ≤ -0.009
same,scaled lipid accumulation score,[2],inactive: ≤ -0.009
CO[C@H]1/C=C/O[C@@]2(C)Oc3c(C)c(O)c4c(O)c(cc(O)c4c3C2=O)NC(=O)/C(C)=C\C=C\[C@H](C)[C@H](O)[C@@H](C)[C@@H](O)[C@@H](C)[C@H](OC(C)=O)[C@@H]1C [Rifamycin sv],scaled lipid accumulation score,[4],inactive: ≤ 0
C[C@@H]1CCO[C@H]2Cn3cc(C(=O)NCc4ccc(F)cc4F)c(=O)c(O)c3C(=O)N12,scaled lipid accumulation score,[1],inactive: ≤ 0
same,scaled lipid accumulation score,[2],inactive: 0.05
O=C(O)c1cc(=O)cc(C(=O)O)[nH]1 [Chelidamic acid],scaled lipid accumulation score,[2],inactive: ≤ 0
COC(=O)[C@H]1[C@H]2C[C@@H]3c4[nH]c5cc(OC)ccc5c4CCN3C[C@H]2C[C@@H](OC(=O)c2cc(OC)c(OC)c(OC)c2)[C@@H]1OC [Reserpine],scaled lipid accumulation score,[2],active: 0.944
OC[C@H]1O[C@H](O[C@]2(CCl)O[C@H](CCl)[C@@H](O)[C@@H]2O)[C@H](O)[C@@H](O)[C@H]1Cl [Sucralose],scaled lipid accumulation score,[1],inactive: ≤ 0
same,scaled lipid accumulation score,library stock concentration: 5 mM,inactive: ≤ 0
same,scaled lipid accumulation score,[2],inactive: ≤ -0.001
CNC(=O)c1cc(Oc2ccc(NC(=O)Nc3cc(C(C)(C)C)nn3-c3ccc4ncccc4c3)c(F)c2)ccn1,scaled lipid accumulation score,[5],inactive: ≤ -0.016
same,scaled lipid accumulation score,[6],inactive: ≤ -0.016
same,scaled lipid accumulation score,[7],inactive: ≤ -0.016
same,scaled lipid accumulation score,[2],inactive: ≤ -0.016
CNC(=O)c1cc(Oc2ccc(NC(=O)Nc3cc(C(C)(C)C)nn3-c3ccc4ncccc4c3)c(F)c2)ccn1 [DCC-2036 (Rebastinib)],scaled lipid accumulation score,[1],inactive: 0.04
same,scaled lipid accumulation score,[2],inactive: 0.032
CC(C)C[C@H](NC(=O)[C@@H](NC(=O)c1cccc(-c2ccccc2)n1)[C@@H](C)O)B(O)O,scaled lipid accumulation score,[1],inactive: 0.572
same,scaled lipid accumulation score,[2],inactive: 0.748
